Measured values reported in PMC4336329 (PLoS ONE, 2015).
About 14,000 (4.5%) of roughly 310,000 compounds showed an effect of 50% or more. Effects have a minus sign here. Some of the results follow.

What follows are molecules tested against human ether-à-go-go-related gene (hERG) potassium channel (human, UniProt Q12809) (assay: primary screen, population patch clamp on CHO cells stably expressing hERG).
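Also: peak tail current of the secondary pulse compared with the same well before compound.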

human ether-à-go-go-related gene (hERG) potassium channel, sequence (Q12809 whole entry, looked up): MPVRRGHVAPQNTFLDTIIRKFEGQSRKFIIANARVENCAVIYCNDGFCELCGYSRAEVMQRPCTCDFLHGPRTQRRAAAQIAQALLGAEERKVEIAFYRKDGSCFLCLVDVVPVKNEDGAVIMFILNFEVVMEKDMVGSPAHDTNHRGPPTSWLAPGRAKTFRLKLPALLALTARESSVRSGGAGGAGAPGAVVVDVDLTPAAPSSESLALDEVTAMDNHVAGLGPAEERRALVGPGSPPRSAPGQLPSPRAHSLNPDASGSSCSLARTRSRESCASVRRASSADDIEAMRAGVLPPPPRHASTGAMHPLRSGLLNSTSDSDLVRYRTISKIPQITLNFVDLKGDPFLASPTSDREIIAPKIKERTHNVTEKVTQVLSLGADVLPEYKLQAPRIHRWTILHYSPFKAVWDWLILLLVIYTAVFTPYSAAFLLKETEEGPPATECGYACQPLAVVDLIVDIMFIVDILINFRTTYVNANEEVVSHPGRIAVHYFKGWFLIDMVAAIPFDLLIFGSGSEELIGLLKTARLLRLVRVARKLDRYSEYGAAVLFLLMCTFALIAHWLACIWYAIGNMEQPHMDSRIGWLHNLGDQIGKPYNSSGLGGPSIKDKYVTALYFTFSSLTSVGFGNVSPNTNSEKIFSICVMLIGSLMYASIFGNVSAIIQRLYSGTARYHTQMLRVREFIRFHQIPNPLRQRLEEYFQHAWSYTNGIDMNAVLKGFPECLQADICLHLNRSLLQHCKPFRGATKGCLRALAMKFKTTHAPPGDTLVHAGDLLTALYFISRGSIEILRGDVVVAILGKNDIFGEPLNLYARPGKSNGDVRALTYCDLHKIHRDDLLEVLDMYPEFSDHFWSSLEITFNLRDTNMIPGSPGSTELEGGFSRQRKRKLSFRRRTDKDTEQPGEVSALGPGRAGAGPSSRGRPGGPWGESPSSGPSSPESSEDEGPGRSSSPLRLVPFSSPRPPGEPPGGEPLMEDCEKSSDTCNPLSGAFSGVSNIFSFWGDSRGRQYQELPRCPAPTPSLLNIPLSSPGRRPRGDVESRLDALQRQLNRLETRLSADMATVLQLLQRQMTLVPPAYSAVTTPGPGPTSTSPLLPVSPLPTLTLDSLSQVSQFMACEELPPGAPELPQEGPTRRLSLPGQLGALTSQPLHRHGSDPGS

Point of comparison: CSc1ncc2c(n1)-c1cc(C)ccc1SC2, “hERG current change (%, negative = inhibition) at 10uM” value 16.6%. Against it:
- N#C/C(C(=O)Oc1ccccc1)=C1\C=CC=CN1 — lower, 3.95%
- CCOc1cccc2sc(N(CCN(C)C)C(=O)c3ccc(Br)s3)nc12.Cl — lower, -30.3%
- C=CCN1C(=O)NC(=O)/C(=C/c2c(CCN(C)C(=O)c3ccccc3)cc3c(c2OC)OCO3)C1=O — lower, 6.74%
- CCOc1ccc(S(=O)(=O)N2CCC(C(=O)N3CCN(c4ccccc4)CC3)CC2)cc1 — lower, -18%
- Cn1c(=O)c(=O)n(C)c2cc(S(=O)(=O)CCC(=O)Nc3ccc(C(F)(F)F)cc3)ccc21 — higher, 17.9%
- CN(C)S(=O)(=O)c1cccc(NC(=O)COC(=O)c2ccc(Br)o2)c1 — lower, -27.9%
- c1ccc2c(c1)NC(c1ccncc1)n1c-2nc2ccccc21 (stereo not drawn) — lower, -66.2%
- CC(=O)N1[C@H](C)C=C[C@]1(Cc1ccccc1)C(=O)NCc1cc(F)cc(C(F)(F)F)c1 — lower, -8.05%
- O=Nc1c(O)[nH]c2ccc(Cl)cc12 — lower, 1.11%
- CCc1ccc(CN2C(=O)CCC2(C)C(=O)NC2CCCC2)cc1 (stereo not drawn) — lower, 3.34%
- COc1cccc(CNC(=O)Cn2c(=O)oc3cc(S(=O)(=O)N4CCCCC4)ccc32)c1 — lower, 0.515%
- COc1ccc(/C(C)=N/NS(=O)(=O)c2ccccc2)c(OC)c1 — lower, -1.14%
- C=CCN1C(=O)c2ccc(C(=O)N(CC(C)C)c3c(N)n(CCCC)c(=O)[nH]c3=O)cc2C1=O — lower, 16.3%
- COc1ccccc1C(=O)Nc1cccc(NC(=O)c2ccccc2C)c1 — lower, 3.01%
- COc1ccc(Br)cc1CN1C(=O)NC2(CCCCCC2)C1=O — lower, 10.4%
- CC1CCC(NCC(=O)Nc2cccc(S(N)(=O)=O)c2)CC1.O=C(O)C(=O)O (stereo not drawn) — lower, 14.3%
- Cc1cc(/C=C2\SC(=S)NC2=O)c(C)n1C — lower, 10.8%
- Cc1ccc(-c2c(C(=O)N/N=C/c3c[nH]c4ccccc34)nnn2-c2nonc2N)cc1 — higher, 23.7%
- Cc1nnc(Nc2ccc(C(=O)O)cc2)[nH]c1=O — higher, 17.8%
- COc1ccc(CN2CCN(Cc3c[nH]c4ccccc34)CC2)cc1.O=C(O)C(=O)O — lower, -67.5%
- Cc1cccc(-c2noc(CNC(=O)c3ccco3)n2)c1 — lower, -4.07%
- Cc1nnc(NC(=O)c2c(F)cccc2F)s1 — higher, 21.6%
- Cc1cccc(NC(=S)NNC(=O)c2nn(C)cc2Cl)c1 — lower, 3.97%
- O=C(CN(Cc1cccs1)C(=O)CCC(=O)Nc1nccs1)NCc1ccccc1 — lower, -31%
- CCOc1ccc(-c2cn3ccccc3n2)cc1[N+](=O)[O-] — lower, -17.7%
- CCCN(CCC)S(=O)(=O)c1ccc(C(=O)NCc2ccc3c(c2)OCO3)cc1 — lower, 7.42%
- COC(=O)c1sc2nc3c(cc2c1N)C(=O)CC(C)(C)C3 — higher, 19.8%
- O=C(CSc1ccc(-c2cccnc2)nn1)c1ccc([N+](=O)[O-])cc1 — lower, -42.5%
- CC1=NN(c2ccccc2)C(=O)/C1=C\N1CC(C)OC(C)C1 (stereo not drawn) — lower, -9.29%
- Cc1ccc(NC(=O)c2sc(C)nc2C)c(C)c1 — lower, 1.97%
- Cc1ccc(C)c(C(=O)COc2ncnc3ccccc23)c1 — lower, 3.24%
- CCNC(=O)C(CCSC)NS(=O)(=O)c1ccc(C)cc1 (stereo not drawn) — lower, -4.17%
- COc1cccc(-c2cc3nc4c(c(NCC(C)(C)CN(C)C)n3n2)CCCC4)c1 — lower, -40.8%
- COc1cc(CN2CCN(CC3CC3)CC2CCO)cc(OC)c1 (stereo not drawn) — lower, 2.79%
- COc1ccc(-c2cc(C(F)F)n3ncc(C(=O)Nc4cc(C)on4)c3n2)cc1 — lower, 8.08%
- Cc1cc(OCc2cc(C(=O)N(C)C3CCOCC3)no2)cc(C)c1Cl — lower, -13.5%
- COc1ccc(-n2nnnc2SCc2nc(N)nc(N3CCOCC3)n2)cc1 — lower, 2.6%
- CC(C)C[C@H](NC(=O)c1nc[nH]c1C(=O)NC(c1ccccc1)c1ccccc1)C(=O)OC(C)(C)C — higher, 17.6%
- O=C(O)C1CCCCC1C(=O)NCc1ccncc1 (stereo not drawn) — lower, 7.51%
- CC(=O)c1ccc(NS(=O)(=O)c2ccc3c(c2)CCC(=O)N3)cc1 — lower, 8.49%
- O=C(Nc1nc(-c2ccccc2)cs1)C1CCCO1 (stereo not drawn) — lower, -20.1%
- CC(=O)Nc1ccc(-c2cc3ccccc3o2)cc1 — lower, 1.54%
- N#Cc1ccccc1OCC(=O)Nc1ccc2c(c1)OCCO2 — lower, 4.25%
- COc1cc(C(=O)NCc2ccccc2)cc(Br)c1OC — lower, 7.89%
- COc1ccc(CNc2cccc(C)n2)c(O)c1 — lower, -3.24%
- Cc1nc2ccccc2c(=O)n1-c1ccc(F)cc1 — lower, -12.1%
- CCOc1ccc2oc(C(=O)NCC3CCCO3)c(C)c2c1 (stereo not drawn) — lower, 11%
- COc1ccc(CCNC(=O)C(C)n2nc(C)n3c(cc4occc43)c2=O)cc1OC (stereo not drawn) — lower, 4.63%
- Cc1cc(NC(=O)C2CCN(C(=O)c3ccco3)CC2)ccc1Br — lower, -24.2%
- CN1CCN(CCC(=O)N2c3ccccc3Sc3ccc(C(F)(F)F)cc32)CC1.Cl — lower, -23.1%
- COc1cc(/C=C(\C#N)C(=O)Nc2cccc3ncccc23)ccc1O — lower, 15.9%
- COc1ccc(NC(=O)CN(c2ccccc2F)S(=O)(=O)c2ccc(C)cc2)c(OC)c1 — lower, 11%
- O=C(Cc1ccccc1)NCC(=O)OCC(=O)c1ccccc1Cl — higher, 25.9%
- COC(=O)c1ccc(COC(=O)CNC(=O)c2ccco2)cc1 — higher, 17.3%
- CCNc1nc(NCc2ccccc2)nc(SCC(N)=O)n1 — lower, -6.42%
- O=C(NC1CCCCC1)N1CCN(c2ccc(Cl)cc2)CC1 — lower, -27.8%
